This note sets out measurements from publication PMC9911399, “Two distinct binding modes provide the RNA-binding protein RbFox with extraordinary sequence specificity”.

Numbering of substitutions follows the chain as printed; changes in the protein carry UniProt numbers. This is one part of the list.

First the molecules themselves.
T1: RBFOX1 RRM RbFoxmut (Fox-RRM*) (Homo sapiens, UniProt Q9NWB1 109-208, R118D;E147R;N151S;E152T)
T1 sequence: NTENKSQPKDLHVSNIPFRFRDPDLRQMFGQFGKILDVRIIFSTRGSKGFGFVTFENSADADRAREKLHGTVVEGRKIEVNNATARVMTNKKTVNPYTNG

B1: CACAGCC (DNA:RNA)
RNA: GGGAGACCGGAAUUCAGAUUGUCCCACAGCCUUAAAUCCCGUCGUAGCCACCA
DNA 1: CAATCTGAATTCCGGTCTCCC
DNA 2: TGGTGGCTACGACGGGATT
B2: GUCGCUC (DNA:RNA)
RNA: B1 RNA with C25G, A26U, A28G, G29C, C30U
DNA 1: CAATCTGAATTCCGGTCTCCC
DNA 2: TGGTGGCTACGACGGGATT
B3: ACUGAAA (DNA:RNA)
RNA: GGGAGACCGGAAUUCAGAUUGUCCACUGAAAUUAAAUCCCGUCGUAGCCACCA
DNA 1: CAATCTGAATTCCGGTCTCCC
DNA 2: TGGTGGCTACGACGGGATT
B4: GGCGCCU (DNA:RNA)
RNA: B1 RNA with C25G, A26G, A28G, G29C, C31U
DNA 1: CAATCTGAATTCCGGTCTCCC
DNA 2: TGGTGGCTACGACGGGATT
B5: UGGCGCA (DNA:RNA)
RNA: B1 RNA with C25U, A26G, C27G, A28C, C31A
DNA 1: CAATCTGAATTCCGGTCTCCC
DNA 2: TGGTGGCTACGACGGGATT
B6: UUGUUGC (DNA:RNA)
RNA: B1 RNA with C25U, A26U, C27G, A28U, G29U, C30G
DNA 1: CAATCTGAATTCCGGTCTCCC
DNA 2: TGGTGGCTACGACGGGATT
B7: AGGAGAG (DNA:RNA)
RNA: B3 RNA with C26G, U27G, G28A, A29G, A31G
DNA 1: CAATCTGAATTCCGGTCTCCC
DNA 2: TGGTGGCTACGACGGGATT
B8: CCCUCCG (DNA:RNA)
RNA: B1 RNA with A26C, A28U, G29C, C31G
DNA 1: CAATCTGAATTCCGGTCTCCC
DNA 2: TGGTGGCTACGACGGGATT
B9: AAAGGAU (DNA:RNA)
RNA: B3 RNA with C26A, U27A, A29G, A31U
DNA 1: CAATCTGAATTCCGGTCTCCC
DNA 2: TGGTGGCTACGACGGGATT
B10: CAGUCGA (DNA:RNA)
RNA: B1 RNA with C27G, A28U, G29C, C30G, C31A
DNA 1: CAATCTGAATTCCGGTCTCCC
DNA 2: TGGTGGCTACGACGGGATT
B11: AUACUUC (DNA:RNA)
RNA: B3 RNA with C26U, U27A, G28C, A29U, A30U, A31C
DNA 1: CAATCTGAATTCCGGTCTCCC
DNA 2: TGGTGGCTACGACGGGATT
B12: UGUGACA (DNA:RNA)
RNA: B3 RNA with A25U, C26G, A30C
DNA 1: CAATCTGAATTCCGGTCTCCC
DNA 2: TGGTGGCTACGACGGGATT
B13: CAUGCGG (DNA:RNA)
RNA: B3 RNA with A25C, C26A, A29C, A30G, A31G
DNA 1: CAATCTGAATTCCGGTCTCCC
DNA 2: TGGTGGCTACGACGGGATT
B14: CACGGCG (DNA:RNA)
RNA: B1 RNA with A28G, C31G
DNA 1: CAATCTGAATTCCGGTCTCCC
DNA 2: TGGTGGCTACGACGGGATT
B15: ACAACAU (DNA:RNA)
RNA: B3 RNA with U27A, G28A, A29C, A31U
DNA 1: CAATCTGAATTCCGGTCTCCC
DNA 2: TGGTGGCTACGACGGGATT
B16: AGAUAGU (DNA:RNA)
RNA: B3 RNA with C26G, U27A, G28U, A30G, A31U
DNA 1: CAATCTGAATTCCGGTCTCCC
DNA 2: TGGTGGCTACGACGGGATT
B17: UGGUUUU (DNA:RNA)
RNA: GGGAGACCGGAAUUCAGAUUGUCCUGGUUUUUUAAAUCCCGUCGUAGCCACCA
DNA 1: CAATCTGAATTCCGGTCTCCC
DNA 2: TGGTGGCTACGACGGGATT
B18: UCUAACU (DNA:RNA)
RNA: B3 RNA with A25U, G28A, A30C, A31U
DNA 1: CAATCTGAATTCCGGTCTCCC
DNA 2: TGGTGGCTACGACGGGATT
B19: CCGCCCU (DNA:RNA)
RNA: B1 RNA with A26C, C27G, A28C, G29C, C31U
DNA 1: CAATCTGAATTCCGGTCTCCC
DNA 2: TGGTGGCTACGACGGGATT
B20: UCACGCU (DNA:RNA)
RNA: B1 RNA with C25U, A26C, C27A, A28C, C31U
DNA 1: CAATCTGAATTCCGGTCTCCC
DNA 2: TGGTGGCTACGACGGGATT
B21: GAGGACU (DNA:RNA)
RNA: B3 RNA with A25G, C26A, U27G, A30C, A31U
DNA 1: CAATCTGAATTCCGGTCTCCC
DNA 2: TGGTGGCTACGACGGGATT
B22: GAUGGGC (DNA:RNA)
RNA: B1 RNA with C25G, C27U, A28G, C30G
DNA 1: CAATCTGAATTCCGGTCTCCC
DNA 2: TGGTGGCTACGACGGGATT
B23: UGUAGAG (DNA:RNA)
RNA: B3 RNA with A25U, C26G, G28A, A29G, A31G
DNA 1: CAATCTGAATTCCGGTCTCCC
DNA 2: TGGTGGCTACGACGGGATT
B24: AAAGGGA (DNA:RNA)
RNA: B3 RNA with C26A, U27A, A29G, A30G
DNA 1: CAATCTGAATTCCGGTCTCCC
DNA 2: TGGTGGCTACGACGGGATT
B25: AUUGUUA (DNA:RNA)
RNA: B3 RNA with C26U, A29U, A30U
DNA 1: CAATCTGAATTCCGGTCTCCC
DNA 2: TGGTGGCTACGACGGGATT
B26: UCUAUAA (DNA:RNA)
RNA: B3 RNA with A25U, G28A, A29U
DNA 1: CAATCTGAATTCCGGTCTCCC
DNA 2: TGGTGGCTACGACGGGATT
B27: GAGGGGC (DNA:RNA)
RNA: B1 RNA with C25G, C27G, A28G, C30G
DNA 1: CAATCTGAATTCCGGTCTCCC
DNA 2: TGGTGGCTACGACGGGATT
B28: GACCCUG (DNA:RNA)
RNA: B1 RNA with C25G, A28C, G29C, C30U, C31G
DNA 1: CAATCTGAATTCCGGTCTCCC
DNA 2: TGGTGGCTACGACGGGATT
B29: CAAGCUU (DNA:RNA)
RNA: B1 RNA with C27A, A28G, G29C, C30U, C31U
DNA 1: CAATCTGAATTCCGGTCTCCC
DNA 2: TGGTGGCTACGACGGGATT
B30: GGGUCCC (DNA:RNA)
RNA: B17 RNA with U25G, U29C, U30C, U31C
DNA 1: CAATCTGAATTCCGGTCTCCC
DNA 2: TGGTGGCTACGACGGGATT
B31: CGUUAAC (DNA:RNA)
RNA: B3 RNA with A25C, C26G, G28U, A31C
DNA 1: CAATCTGAATTCCGGTCTCCC
DNA 2: TGGTGGCTACGACGGGATT

The target in this test is T1, RBFOX1 RRM RbFoxmut (Fox-RRM*). Description: EMSA; HiTS-Eq, 1 nM pool, 10 min; buffer printed only for the single-RNA assays: 10 mM Tris pH 7.5, 150 mM NaCl, 3.4 mM EDTA, 0.001% NP-40, 30 C. The note with it: tags: His6 N-terminal (pET28a); label: 5' 32P. In short, it runs like this: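 Purified RbFox RRM (wild type or mutant) was equilibrated for 10 min in 50 µL with 1 nM of a 5′-radiolabelled pool of RNA with 7 randomized nucleotides, its flanks annealed to DNA oligonucleotides, across increasing protein concentrations. Free RNA was separated by 8% native PAGE, excised, reverse-transcribed, PCR-barcoded and sequenced on an Illumina HiSeq 2500. Relative association constants came from read-count changes of each variant against the control reaction, normalised to the cognate motif.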
For the molecule B1, the binding signal was 0.078 KA relative to UGCAUGU.
To B2 belongs 0.0832 KA relative to UGCAUGU.
For the molecule B3, the binding signal was 0.0571 KA relative to UGCAUGU.
Take B4: the binding signal was 0.0758 KA relative to UGCAUGU.
The value for B5 was 0.166 KA relative to UGCAUGU; that for B6 was 0.148 KA relative to UGCAUGU; that for B7 was 0.129 KA relative to UGCAUGU.
The value for B8 was 0.0774 KA relative to UGCAUGU.
As to B9, the binding signal is 0.0765 KA relative to UGCAUGU.
For B10, the binding signal was 0.0678 KA relative to UGCAUGU.
To B11 belongs 0.0634 KA relative to UGCAUGU; to B12, 0.0706 KA relative to UGCAUGU.
To B13 belongs 0.0671 KA relative to UGCAUGU; to B14, 0.129 KA relative to UGCAUGU; to B15, 0.0911 KA relative to UGCAUGU.
To B16 belongs 0.108 KA relative to UGCAUGU; to B17, 0.0956 KA relative to UGCAUGU.
With B18, the binding signal is 0.0968 KA relative to UGCAUGU.
The value for B19 was 0.049 KA relative to UGCAUGU.
For the molecule B20, the binding signal is 0.075 KA relative to UGCAUGU.
To B21 belongs 0.0416 KA relative to UGCAUGU; to B22, 0.0797 KA relative to UGCAUGU.
As for B23, the binding signal is 0.152 KA relative to UGCAUGU.
The value for B24 was 0.0779 KA relative to UGCAUGU; that for B25 was 0.175 KA relative to UGCAUGU.
The value for B26 was 0.112 KA relative to UGCAUGU; that for B27 was 0.0865 KA relative to UGCAUGU; that for B28 was 0.0972 KA relative to UGCAUGU.
For the molecule B29, the binding signal was 0.092 KA relative to UGCAUGU.
The value for B30 was 0.103 KA relative to UGCAUGU; that for B31 was 0.117 KA relative to UGCAUGU.
